± gives the standard deviation of the averaged measurements. Over roughly 33,000 sequences, “E-score (dimensionless, -0.5 to 0.5)” has its median near -0.049; the highest 2% begin near 0.37. Some of the results follow.
Test system: T1, PmTbr T-box DNA-binding domain (GST fusion)
T1 sequence: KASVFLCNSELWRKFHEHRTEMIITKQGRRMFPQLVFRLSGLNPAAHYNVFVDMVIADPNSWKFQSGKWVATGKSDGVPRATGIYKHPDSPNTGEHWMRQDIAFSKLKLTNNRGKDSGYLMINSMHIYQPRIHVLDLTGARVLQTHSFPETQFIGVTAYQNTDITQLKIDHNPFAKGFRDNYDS
Assay: PBM E-score of 8-mer (E-score (dimensionless, -0.5 to 0.5)); Tbr is Tbrain of the sea star Patiria miniata (Pm) or the sea urchin Strongylocentrotus purpuratus (Sp); higher = stronger binding preference; most listed sequences are background and not binding sites
Settings: the construct has about 5 more residues each side
Method in brief: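 Primer extension turned Universal Agilent oligonucleotide arrays double-stranded. They were incubated with 200 nM protein in PBS (pH 7.5); the protein was a GST-fused Tbr T-box DNA-binding domain expressed in BL21 E. coli at 20 °C and purified on glutathione. Every ungapped 8-mer was scored from the scanned, quantified probe intensities, and the Universal PBM Analysis Suite gave each an enrichment E-score averaged over duplicate arrays.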

In order of rising “PBM E-score of 8-mer” value:
1. GGACGACC  -0.367 ± 0.021
2. CTGATCTA  -0.329 ± 0.035
3. AAGAAAAG  -0.321 ± 0.14
4. AGGGCCTA  -0.312 ± 0.038
5. AATCCTAG  -0.31 ± 0.026
6. CAAATGAA  -0.303 ± 0.0046
7. CCAAGCCA  -0.297 ± 0.0033
8. ACTCCTAA  -0.284 ± 0.0031
9. ATACCGAT  -0.2596 ± 0.00038
10. ATACATAG  -0.253 ± 0.02
11. ATCGGTAG  -0.244 ± 0.035
12. CAAGGGCC  -0.243 ± 0.0032
13. GAAGGCCA  -0.238 ± 0.03
14. TACTTCAA  -0.237 ± 0.022
15. CCCAGATA  -0.233 ± 0.14
16. AAAAGGTA  -0.231 ± 0.12
17. GTCCAGTA  -0.228 ± 0.11
18. AAAACCCC  -0.2264 ± 0.0016
19. GCTATGAA  -0.223 ± 0.019
20. CCGGCTGA  -0.222 ± 0.012
21. AACCAATC  -0.215 ± 0.044
22. AGATACAT  -0.213 ± 0.044
23. ATTGACCG  -0.205 ± 0.029
24. AAGGGCCA  -0.203 ± 0.0058
25. TAAAGTTA  -0.195 ± 0.073
26. GATCATGA  -0.195 ± 0.009
27. CTATGGTC  -0.182 ± 0.017
28. ACCGCTCT  -0.169 ± 0.058
29. CCACGCAG  -0.168 ± 0.0041
30. TCCCCCCA  -0.168 ± 0.029
31. CCCGCAGA  -0.168 ± 0.061
32. AAGGGAGA  -0.166 ± 0.039
33. TGGACCCA  -0.164 ± 0.018
34. ATAAAACC  -0.162 ± 0.071
35. ACCATACT  -0.16 ± 0.051
36. TAAGAAGA  -0.158 ± 0.036
37. ACTACGGA  -0.1544 ± 0.00067
38. AATGGCCA  -0.153 ± 0.014
39. GGTTCAAC  -0.15 ± 0.039
40. GGAGCCTA  -0.148 ± 0.07
41. ACCAGGGC  -0.144 ± 0.08
42. ATGGCTCC  -0.143 ± 0.015
43. TGCGCCCA  -0.142 ± 0.078
44. GGGGCGTA  -0.141 ± 0.034
45. ATAAAGAA  -0.132 ± 0.043
46. TAAGGGCA  -0.13 ± 0.0082
47. CTACTGAA  -0.13 ± 0.018
48. TCTGGTCA  -0.125 ± 0.047
49. CCAGCATC  -0.121 ± 0.085
50. TCCACTAA  -0.121 ± 0.037
51. ATAGTTTG  -0.12 ± 0.03
52. CTGGGTAA  -0.12 ± 0.047
53. GGAAAGTA  -0.118 ± 0.036
54. AGCAGCGG  -0.117 ± 0.045
55. TGGCTACA  -0.117 ± 0.0015
56. CTACCCCA  -0.116 ± 0.0095
57. AGTCAGCC  -0.111 ± 0.0071
58. CCCGGTCG  -0.111 ± 0.059
59. ATAAGAGA  -0.11 ± 0.014
60. ATAGAGTA  -0.106 ± 0.0083
61. TCCGGTCA  -0.105 ± 0.023
62. CAATCATA  -0.102 ± 0.056
63. GAGGCTCC  -0.101 ± 0.097
64. AGCGTCGA  -0.101 ± 0.0055
65. GTATAAAC  -0.0989 ± 0.041
66. ATGACCCA  -0.0989 ± 0.055
67. CAGCTTAA  -0.0988 ± 0.043
68. AATTATAA  -0.0957 ± 0.0095
69. AGCTTTCA  -0.0869 ± 0.029
70. CATGTAAA  -0.0865 ± 0.017
71. CATAAGAA  -0.0845 ± 0.019
72. ACTGCGTA  -0.084 ± 0.063
73. AAAGATGC  -0.0825 ± 0.01
74. CGGGCAAG  -0.0794 ± 0.036
75. ATCTTATA  -0.079 ± 0.064
76. CCCCCGTA  -0.0786 ± 0.11
77. AAGTTCCA  -0.0779 ± 0.05
78. GTCGGGAA  -0.0748 ± 0.046
79. GAGACCGC  -0.074 ± 0.049
80. TAGTCATA  -0.0725 ± 0.0084
81. ATGAAAGG  -0.0708 ± 0.048
82. AATCGTAA  -0.0687 ± 0.016
83. GGTTGGAC  -0.0675 ± 0.016
84. GAACCTGA  -0.0662 ± 0.027
85. AAATTGCC  -0.0577 ± 0.12
86. AAACGTTC  -0.0546 ± 0.081
87. GCTGCATA  -0.0535 ± 0.029
88. CCGAGTCA  -0.0527 ± 0.13
89. CAAACAAA  -0.051 ± 0.021
90. CTGGCGTA  -0.0506 ± 0.048
91. CCTACCTC  -0.0492 ± 0.071
92. AGCCACGC  -0.0441 ± 0.025
93. AGCTAGAA  -0.041 ± 0.032
94. ACCCCGAT  -0.0394 ± 0.1
95. AAGATAGT  -0.0386 ± 0.041
96. CATGACAG  -0.036 ± 0.025
97. ACTATTAG  -0.036 ± 0.093
98. ATAACATA  -0.0354 ± 0.053
99. GTGCTGTA  -0.0335 ± 0.024
100. TCGTACAA  -0.0321 ± 0.12
101. ACAAGCCG  -0.0272 ± 0.0016
102. ATTGTACG  -0.0254 ± 0.021
103. ATTCAAGC  -0.0243 ± 0.046
104. AATACCAT  -0.0206 ± 0.066
105. CGACTCCC  -0.0166 ± 0.00058
106. GCGGTTTA  -0.0137 ± 0.0091
107. GATAAAAC  -0.0131 ± 0.087
108. CTGGCATC  -0.0115 ± 0.013
109. GGAAGACA  -0.00842 ± 0.024
110. CGACGGTC  -0.00835 ± 0.024
111. ACTCCGAA  -0.00434 ± 0.02
112. AAATGAGT  -0.00317 ± 0.1
113. CTACGCGA  0.000755 ± 0.04
114. CCGCGACC  0.00378 ± 0.03
115. CAAACAGC  0.00487 ± 0.034
116. TACCTTGA  0.00793 ± 0.011
117. AGGAGTGG  0.00902 ± 0.039
118. GCCTTGAA  0.00906 ± 0.025
119. GCAAGCGC  0.0149 ± 0.012
120. ACGAAAGT  0.0225 ± 0.005
121. GGACAACA  0.0292 ± 0.044
122. CTGCCCCA  0.0302 ± 0.0014
123. ACAGCCGC  0.0319 ± 0.077
124. CCAGCTCA  0.032 ± 0.011
125. CATGAATC  0.0325 ± 0.041
126. AACTTCAA  0.0368 ± 0.066
127. CATCGCAA  0.0368 ± 0.039
128. ACCCCTCA  0.0373 ± 0.049
129. ACCATTCA  0.041 ± 0.024
130. TCTACACA  0.0416 ± 0.0097
131. TACCCGGA  0.0435 ± 0.04
132. GAAACTAA  0.0495 ± 0.037
133. CCAATGGC  0.0745 ± 0.041
134. ATGCGATA  0.0765 ± 0.014
135. ATACACGC  0.0808 ± 0.053
136. GCGAACCA  0.082 ± 0.087
137. CAGCAACG  0.0837 ± 0.049
138. GAACACGA  0.0885 ± 0.011
139. AATCCGCA  0.0886 ± 0.023
140. AATAACAA  0.0902 ± 0.031
141. CACTACTG  0.0937 ± 0.016
142. TCACGGGA  0.0985 ± 0.012
143. ACGCTTTC  0.101 ± 0.036
144. CCCGTCAG  0.102 ± 0.12
145. GAGGCGCA  0.105 ± 0.017
146. AAGGTATC  0.108 ± 0.077
147. CACCAAAA  0.115 ± 0.063
148. ACACGACT  0.126 ± 0.028
149. ACCTTCGA  0.126 ± 0.028
150. CGCTTGTC  0.138 ± 0.03
151. CACTACCG  0.138 ± 0.026
152. CAACGCGG  0.143 ± 0.035
153. CACTAGGC  0.155 ± 0.0034
154. ATGCGAGG  0.155 ± 0.05
155. CGCCCGAG  0.159 ± 0.072
156. AAGCGAGC  0.16 ± 0.02
157. AGCTGAGA  0.165 ± 0.07
158. CGCGCAAA  0.172 ± 0.036
159. ATCGGGTG  0.212 ± 0.043
160. ACTTTGTC  0.218 ± 0.026
161. GTGAAATA  0.22 ± 0.028
162. AACACAAT  0.229 ± 0.0032
163. GGACACCC  0.242 ± 0.037
164. CTCATCAC  0.249 ± 0.0053
165. AATGTGCT  0.251 ± 0.023
166. TCGACACA  0.319 ± 0.016
167. AACACTGC  0.322 ± 0.021
168. TGACAAAA  0.333 ± 0.022
169. AACTGTGA  0.361 ± 0.026
170. CACCTTGC  0.4191 ± 0.0029
171. AAGTGCTA  0.448 ± 0.016
172. GGTGCGAA  0.48957 ± 0.00016

Source: the supplement of paper PMC4166925
